# From PubChem BioAssay AID1454 (National Center for Advancing Translational Sciences (NCATS), 2008)
# Out of some 130,000 compounds screened, about 550 (0.42%) were called active. Inconclusive results, whose numbers are uncertain, are shown with a selection of clear calls. Calls follow the shape of the dose curve; as a rule, active = well fitted inhibition curve with a large enough effect; inconclusive = small, poorly fitted or top-dose-only effect, or effect the other way; inactive = flat fitted curve, though single readings scatter. No potency is given beside an inconclusive call; the fits are too rough. The source holds several records for some structures; these can differ, active in one and inactive in another.
# Assay: qHTS Assay for Inhibitors of the ERK Signaling Pathway using a Homogeneous Screening Assay; Stimulation with EGF; also: nearly all actives have a fitted effect of over 55% in size;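 as to activity change, negative = inhibition: plate controls were stimulated vehicle wells for no effect and unstimulated vehicle basal for full effect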
# Details: HEK293-V1b, EGF-stimulated phospho-ERK AlphaScreen; activity change, negative = inhibition: at the top concentration
# Summary of the method: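 Concentration-response of compounds against EGF-driven ERK phosphorylation in V1b-expressing HEK293 cells; 30 min preincubation, 5 min EGF, AlphaScreen detection; Normalized to DMSO basal and 25 nM EGF.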
# Potency is read from the fitted curve at half-maximal effect; tags tell the direction and shape of the fitted curve.
Structure (SMILES),Potency,"activity change, negative = inhibition"
COC(=O)c1ccc(CSc2cc(C)c3cccc(C)c3n2)o1,"inconclusive [activator, partial curve, poor fit]",
Cc1nc(-c2ccc(C(=O)Nc3cccc(Br)c3)cc2)cs1,"inconclusive [inhibitor, single point]",
C/C(=N\NC(=O)COc1ccc(C(C)(C)C)cc1)c1ccccc1,"inconclusive [inhibitor, single point]",
O=C(N/N=C/c1cccs1)c1cccc2cc[nH]c12,"inconclusive [inhibitor, single point]",
CC1CCN(CCCNC(=O)CN2CCN(Cc3ccc(Cl)cc3)C2=O)CC1,"inconclusive [inhibitor, partial curve]",
CCOC(=O)N1CCN(C(=O)CSCC(=O)Nc2nc(-c3ccc(Cl)s3)cs2)CC1,"inconclusive [inhibitor, single point]",
CCOC(=O)c1sc(=NC(=O)c2ccc(C)c(C)c2)n(C)c1C,,inactive: 3.19%
CCNC(=O)CSc1nnc(-c2ccccc2Br)n1-c1cccc(C(F)(F)F)c1,,inactive: 30%
Cc1ccc(C(=O)N/C(=C\c2ccc(-c3ccc(Cl)cc3)o2)C(=O)NCCCN(C)C)cc1,"inconclusive [inhibitor, single point]",
COc1ccc(S(=O)(=O)Nc2ccc(N3CCOCC3)cc2)cc1[N+](=O)[O-],"inconclusive [inhibitor, single point]",
CC(C)(C)OC(=O)NNC(=O)NC12CC3CC(CC(C3)C1)C2,"inconclusive [activator, full curve]",
C/C(=N\NC(=O)c1ccc(CN2CCc3ccccc3C2)cc1)c1ccccc1O,"inconclusive [inhibitor, partial curve]",
COc1ccc(OC)c(/C=C/C(=O)NCCc2nc3ccccc3[nH]2)c1,"inconclusive [inhibitor, partial curve]",
COc1ccc(C(=O)NCCN2CCOCC2)cc1OC,,inactive: -8.9%
CCN(CC)Cc1ccc(NC(=O)c2sc3cc(Cl)ccc3c2Cl)cc1,active: 28.2 µM,
CC1(C)CC(=O)C2=C(C1)c1c(ccc3ccccc13)NC2c1ccco1 (stereo not drawn),"inconclusive [inhibitor, single point]",
COc1cccc(-c2onc3ccc(C4(C)OCCO4)cc23)c1,"inconclusive [inhibitor, single point]",
COc1ccccc1N1CCN(/N=C/C=C/c2ccccc2[N+](=O)[O-])CC1,active: 20 µM,
COCCn1c(=O)c(-c2ccccc2)nc2cnc(N3CCNCC3)nc21,,inactive: -4.41%
N#Cc1cccc(NC(=O)N2CCC3(CC2)CCN(C(=O)c2csnn2)CC3)c1,,inactive: 2.7%
Cc1sc(NC(=O)c2ccccc2)c(C(=O)c2ccccc2)c1C,"inconclusive [inhibitor, single point]",
C=CCn1c(=O)/c(=C2/Sc3cc(OC)ccc3N2C)s/c1=C1\C(=O)N(CC)C(=S)N1C,"inconclusive [inhibitor, partial curve]",

Structure (SMILES),Potency,"activity change, negative = inhibition"
Cc1ccc(OCCn2cnc3cc([N+](=O)[O-])ccc3c2=O)cc1,"inconclusive [inhibitor, single point]",
C[C@@H]1O[C@H](O[C@@H]2[C@@H](Oc3cc(O)c4c(c3)O[C@H](c3ccc(O)cc3)CC4=O)O[C@@H](CO)[C@@H](O)[C@H]2O)[C@@H](O)[C@H](O)[C@@H]1O,,inactive: 4.81% [at 25.7 µM]
O=C1c2c(O)ccc(O)c2C(=O)c2c(NCCNCCO)ccc(NCCNCCO)c21,active: 20 µM,
O=C1NC(=S)S/C1=C\c1coc2ccc(O)cc2c1=O,"inconclusive [inhibitor, single point]",
CN1CCNC(=O)C1CC(=O)N1CC=C(c2ccc(F)cc2)CC1 (stereo not drawn),"inconclusive [inhibitor, single point]",
O=C(O)C/C(=C\c1ccc(N2CCOCC2)c([N+](=O)[O-])c1)c1nc2ccccc2s1,"inconclusive [inhibitor, single point]",
O=[N+]([O-])c1cccc(-c2nc(N3CCOCC3)c3ccccc3n2)c1,"inconclusive [inhibitor, partial curve]",
CCN(CC)c1ccc(/C=N/N2CCN(Cc3ccc(Cl)cc3)CC2)c(O)c1,active: 14.1 µM,
COC(=O)[C@@]1(Cc2ccc(OC)cc2)[C@H]2c3cc(C(=O)N(C)C)[nH]c3C[C@H]2CN1C(=O)c1ccccc1,"inconclusive [activator, full curve, poor fit]",
Cc1ccc(-c2nc(NC(=O)c3ccc(S(=O)(=O)N(CCC#N)CCC#N)cc3)sc2-c2ccccc2)cc1,,inactive: 0.346%
CC1=C/C(=N\NC(=S)Nc2cccnc2)CC(C)(C)C1,,inactive: 5.51%
COc1ccc(Cn2nnc3c(=O)[nH]c(C4CCCN(C(=O)c5ccccc5)C4)nc32)cc1 (stereo not drawn),"inconclusive [activator, full curve, poor fit]",
Cc1cccc(N=C2NC(=O)/C(=C/c3cccn3C)S2)c1,,inactive: 0.581% [at 57.5 µM]
O=C(NCCCl)NNC(=O)c1cc2ccccc2cc1O,"inconclusive [inhibitor, partial curve]",
CN(C)c1oc(/C=C/c2ccccc2)nc1C#N,"inconclusive [activator, partial curve]",
C/C(=N\NC(=O)c1ccc2nc[nH]c2c1)c1ccc([N+](=O)[O-])cc1,,inactive: 25.9% [at 57.5 µM]
O=[N+]([O-])c1ccc(/C=N/Nc2ccc3ccccc3c2)o1,"inconclusive [inhibitor, partial curve]",
Cc1[nH]c2ccccc2c1C(=O)CN1C(=O)C(=O)N(C2CCCC2)C1=O,,inactive: 7.92% [at 57.5 µM]
CCCOc1ccc(/C(O)=C2/C(=O)C(=O)N(CCCn3ccnc3)C2c2cccnc2)cc1 (stereo not drawn),"inconclusive [inhibitor, single point]",
COc1ccc(-c2cn[nH]c2-c2ccc(OCc3ccc(F)cc3)cc2O)cc1OC,"inconclusive [inhibitor, single point]",
COc1ccccc1C(=O)C1CCCN(C(=O)CCC(=O)c2ccccc2)C1 (stereo not drawn),"inconclusive [inhibitor, single point]",
